The text below walks through data of the RNAGym collection of RNA variant scans (doi:10.1073/pnas.2313332121).

Variants at the background level are over-represented here.

The chains are these.
B1: TPR 5TU (parent)
chain: GGAUCUUCUCGAUCUAACAAAAAAGACAAAUCUGCCACAAAGCUUGAGAGCAUCUUCGGAUGCAGAGGCGGCAGCCUUCGGUGGCGCGAUAGCGCCAACGUUCUCAACUAUGACACGCAAAACGCGUGCUCCGUUGAAUGGAGUUUAUCAUG

The variants in this data set derive from B1. Put plainly: polymerase ribozyme fitness, log enrichment relative to wild type (log ratio); higher = more active; in vitro selection for triplet polymerase activity. An outline of the steps: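 Each subunit of a heterodimeric triplet polymerase ribozyme was represented by a PCR-built, transcribed mutant library that underwent triplicate single-round in vitro selection with frozen incubation at −7 °C. Extended constructs were recovered by gel excision, streptavidin-bead capture and RT-PCR, and Illumina sequencing of input and output libraries kept genotypes with ≥10 input reads and ≥1 read per output. Fitness is the logarithm of genotype enrichment relative to wild-type enrichment, from inverse-variance-weighted replicate averages, with a logarithm base of 2.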
As for C27G A52G G59C A91G C105G U109G U145C, the “polymerase ribozyme fitness (log ratio)” value was no more than -4.2.

Turning to C27G C43U G71U A91C A137G, the “polymerase ribozyme fitness (log ratio)” value was no more than -4.2.

Turning to C27U A37G G58C G68A G70U C87A C103U A115U, the “polymerase ribozyme fitness (log ratio)” value is no more than -4.2.

On to C27U G42A G67U C69A G117A A150C, for which the “polymerase ribozyme fitness (log ratio)” value is no more than -4.2.

In the case of C27G C85U G94C U139G, the “polymerase ribozyme fitness (log ratio)” value was no more than -4.2.

Take A28C A39C C69A C118G: the “polymerase ribozyme fitness (log ratio)” value was no more than -4.2.

In the case of C27G A52C U82G, the “polymerase ribozyme fitness (log ratio)” value is no more than -4.2.

As to C27U A47C G86A G88U G92A U144C, the “polymerase ribozyme fitness (log ratio)” value is no more than -4.2.

As for C27U C63U C76U G81C U101G U146G, the “polymerase ribozyme fitness (log ratio)” value was -3.39.

As to C27U G58A G59C C99U U102G A120C C125U, the “polymerase ribozyme fitness (log ratio)” value is no more than -4.2.

As to C27G C103A A138U U144G U151C, the “polymerase ribozyme fitness (log ratio)” value is no more than -4.2.

Turning to C27U U33G G68U C79U C96U U130A, the “polymerase ribozyme fitness (log ratio)” value was no more than -4.2.

In the case of C27U G68U G74U U77C G80C U104C C116G, the “polymerase ribozyme fitness (log ratio)” value is no more than -4.2.

For the variant C27U C93G A97U A121G, the “polymerase ribozyme fitness (log ratio)” value was no more than -4.2.

Regarding C27G C32G C36U C85U C125A U148C, the “polymerase ribozyme fitness (log ratio)” value was no more than -4.2.

Regarding C27G G58C G92A U102G C131G A150U, the “polymerase ribozyme fitness (log ratio)” value is no more than -4.2.

For C27U G50C G71C G86A C99A U130G C132U, the “polymerase ribozyme fitness (log ratio)” value was no more than -4.2.

For the variant C27G C105A C114A A119G, the “polymerase ribozyme fitness (log ratio)” value is no more than -4.2.

Consider C27U A28G G50A, for which the “polymerase ribozyme fitness (log ratio)” value is no more than -4.2.

Regarding C27G U53G C95U G100A, the “polymerase ribozyme fitness (log ratio)” value is no more than -4.2.

For C27U A37C G59U G92C G117C, the “polymerase ribozyme fitness (log ratio)” value was -3.65.

For the variant C27U A41U U77G U78G G84A A89C C93A, the “polymerase ribozyme fitness (log ratio)” value is no more than -4.2.

Consider C27U A47U U55A G88C, for which the “polymerase ribozyme fitness (log ratio)” value is no more than -4.2.

As to C27U A91U A113U C125G A138G, the “polymerase ribozyme fitness (log ratio)” value was no more than -4.2.

With C27U A49C G59A, the “polymerase ribozyme fitness (log ratio)” value is no more than -4.2.

With C27G C43G, the “polymerase ribozyme fitness (log ratio)” value is no more than -4.2.

In the case of C27U C85A A91U G143A, the “polymerase ribozyme fitness (log ratio)” value is no more than -4.2.

For the variant C27U A29U A41G U61A U148G, the “polymerase ribozyme fitness (log ratio)” value is no more than -4.2.

For the variant C27G U45A U61C G62C C96U G117A U127G, the “polymerase ribozyme fitness (log ratio)” value was no more than -4.2.

C27G G50U C57A G86U C87A C93G: the “polymerase ribozyme fitness (log ratio)” value is no more than -4.2.

As to C27U C32U C35A G86C G141C, the “polymerase ribozyme fitness (log ratio)” value is no more than -4.2.

Take C27U C63U G81A A89G A97U A119G C125U: the “polymerase ribozyme fitness (log ratio)” value is no more than -4.2.

With C27U C43A U101G C118A, the “polymerase ribozyme fitness (log ratio)” value was no more than -4.2.

A28C A39U G48C G70A G84C C93G G140U: the “polymerase ribozyme fitness (log ratio)” value was no more than -4.2.

Consider C27U A120G C125A, for which the “polymerase ribozyme fitness (log ratio)” value was -1.81.

In the case of C27G C75U C79A G94C C96G A98G U104G G133C U145C, the “polymerase ribozyme fitness (log ratio)” value is no more than -4.2.

As to C27U A41C C95U C125U, the “polymerase ribozyme fitness (log ratio)” value is -2.83.

Regarding C27U C43U C85U U90C A97U A142C, the “polymerase ribozyme fitness (log ratio)” value was no more than -4.2.

With C27U G59A C87A A138U G143C, the “polymerase ribozyme fitness (log ratio)” value is no more than -4.2.

As to C27U A40C U53A C72U C93U G94A A122G, the “polymerase ribozyme fitness (log ratio)” value was no more than -4.2.

Regarding A28C A29U C38A G128C, the “polymerase ribozyme fitness (log ratio)” value is no more than -4.2.

In the case of C27U A40G A66U C76U C93U, the “polymerase ribozyme fitness (log ratio)” value is no more than -4.2.

C27U A29G C36U C54A C76A C95G U109G A110C: the “polymerase ribozyme fitness (log ratio)” value is no more than -4.2.

For C27U G34U C93U G112C U148G, the “polymerase ribozyme fitness (log ratio)” value is no more than -4.2.

Take C27G C87U A97U C99G: the “polymerase ribozyme fitness (log ratio)” value was no more than -4.2.

C27G C51U G70A C72G C87U G141U: the “polymerase ribozyme fitness (log ratio)” value was no more than -4.2.

On to C27G A47G C54U G83C G84A G128A, for which the “polymerase ribozyme fitness (log ratio)” value is no more than -4.2.

As for C27G U53A G94C C103A A107U C149G, the “polymerase ribozyme fitness (log ratio)” value was no more than -4.2.

As to C27U A28U U56G C105U C108G C118A, the “polymerase ribozyme fitness (log ratio)” value is no more than -4.2.

Consider C27U A64U C87U G88A C93G, for which the “polymerase ribozyme fitness (log ratio)” value is no more than -4.2.

As to C27G U45A G48U U53A C75U A106U C131G U134C A137G, the “polymerase ribozyme fitness (log ratio)” value is no more than -4.2.

For C27G G58C G86A C105A U144A, the “polymerase ribozyme fitness (log ratio)” value is no more than -4.2.

For the variant C27U A64C A73U U101C C118G U148C, the “polymerase ribozyme fitness (log ratio)” value was no more than -4.2.

As for C27U A49C C87U G92A, the “polymerase ribozyme fitness (log ratio)” value was no more than -4.2.

Turning to C27U C76G G143U, the “polymerase ribozyme fitness (log ratio)” value is no more than -4.2.

C27G A41U U55G C87A U90G U134G G140C C149U: the “polymerase ribozyme fitness (log ratio)” value is no more than -4.2.

Regarding C27U A41G U44C C54G C95U A97U, the “polymerase ribozyme fitness (log ratio)” value is no more than -4.2.

As to C27G A47G A49U C51U C57U G92U C96A A97G A150U, the “polymerase ribozyme fitness (log ratio)” value is no more than -4.2.

As to C27U C105G G124A U134G, the “polymerase ribozyme fitness (log ratio)” value was no more than -4.2.

C27G C57U A91U C95A C131G U134G G140A: the “polymerase ribozyme fitness (log ratio)” value is no more than -4.2.

For A28C A39U G59U G136U, the “polymerase ribozyme fitness (log ratio)” value was no more than -4.2.

Consider C27G U56A C79A G88C C93A U102G, for which the “polymerase ribozyme fitness (log ratio)” value was no more than -4.2.

Turning to C27U A66G C75A G86U G100C A121U A150C, the “polymerase ribozyme fitness (log ratio)” value is no more than -4.2.

With C27U C51U G83A, the “polymerase ribozyme fitness (log ratio)” value is -2.56.

In the case of C27G C75G G86A C118U, the “polymerase ribozyme fitness (log ratio)” value was no more than -4.2.

Consider C27U G67U C85G C93U C116A G117A, for which the “polymerase ribozyme fitness (log ratio)” value was no more than -4.2.

Regarding C27G U44G C51A C57G G80C G100C U101G G140A, the “polymerase ribozyme fitness (log ratio)” value was no more than -4.2.

Take C27U G68C U82G C85A A89U A91U A122U: the “polymerase ribozyme fitness (log ratio)” value was no more than -4.2.

Take C27U G70A G92C G141C: the “polymerase ribozyme fitness (log ratio)” value was no more than -4.2.

On to C27G U55A A73G U77A C87A A142U, for which the “polymerase ribozyme fitness (log ratio)” value is no more than -4.2.

Turning to C27G A47G G50C G67C G83C G136A, the “polymerase ribozyme fitness (log ratio)” value was no more than -4.2.

As to C27G A52U C69U C85G, the “polymerase ribozyme fitness (log ratio)” value is no more than -4.2.

Turning to C27U A49C, the “polymerase ribozyme fitness (log ratio)” value was no more than -4.2.

Regarding C27G G71U C72A C95U, the “polymerase ribozyme fitness (log ratio)” value is no more than -4.2.

In the case of C27U A40U G59U A107G C116A, the “polymerase ribozyme fitness (log ratio)” value is no more than -4.2.

As for C27G G42U G92C, the “polymerase ribozyme fitness (log ratio)” value is no more than -4.2.

On to A28C A39C A41U U56A G80A A97U G128U, for which the “polymerase ribozyme fitness (log ratio)” value was no more than -4.2.

C27G G50C A91U G100C U134G G136U G143A: the “polymerase ribozyme fitness (log ratio)” value was no more than -4.2.

Take C27G U55A C75G C87A G94U: the “polymerase ribozyme fitness (log ratio)” value is no more than -4.2.

Take C27G G59C G92A C95G C105G: the “polymerase ribozyme fitness (log ratio)” value was no more than -4.2.

Turning to C27U C32A U53C C75U C87A C114U A120U U130G C149U, the “polymerase ribozyme fitness (log ratio)” value is no more than -4.2.

Consider C27U U55A, for which the “polymerase ribozyme fitness (log ratio)” value was -0.901.

Consider C27G C32G C36G A73G C93G U135A, for which the “polymerase ribozyme fitness (log ratio)” value is -4.18.
